Columns and labels:
[1] = molecular target: T1, hCD16a F158 (Cat. no. CDA-H5220, Acro Biosystems) (human, UniProt P08637 17-208); test: SPR (Biacore 8K), serial dilutions over immobilised hCD16a F158, 1:1 Langmuir model
T1 construct: also called human CD16a F158; hCD16a F158 allotype

[2] = molecular target: T1, hCD16a F158 (Cat. no. CDA-H5220, Acro …); test: SPR, 1-E6-(GGGSG)3-A10*-YY-His6 fusion over immobilised receptor [c]
[3] = molecular target: T2, hCD16a V158 (Cat. no. CD8-H52H4, Acro Biosystems) (human, UniProt P08637 17-208); test: as above
T2 construct: also called human CD16a V158; hCD16a V158 allotype

CD16b NA1 [4] = molecular target: T3, CD16b NA1 (human, UniProt O75015); test: SPR, 1-E6-(GGGSG)3-A10*-YY-His6 fusion; CD16b set-up not described [c]
T3 construct: also called CD16b (NA1 form)

CD16b NA2 [5] = molecular target: T4, CD16b NA2 (human, UniProt O75015); test: as above
T4 construct: also called CD16b (NA2 form)

[6] = molecular target: T1, hCD16a F158 (Cat. no. CDA-H5220, Acro …); test: SPR, 1-E6-(GGGSG)3-A10*-YY-His6 fusion over immobilised receptor [f]
[7] = molecular target: T2, hCD16a V158 (Cat. no. CD8-H52H4, Acro …); test: as above
CD16b NA1 [8] = molecular target: T3, CD16b NA1; test: SPR, 1-E6-(GGGSG)3-A10*-YY-His6 fusion; CD16b set-up not described [f]
CD16b NA2 [9] = molecular target: T4, CD16b NA2; test: as above

Kd [1] [nM] | Kd [2] [nM] | Kd [3] [nM] | Kd (CD16b NA1 [4]) [nM] | Kd (CD16b NA2 [5]) [nM] | koff [1] [s⁻¹] | kon [1] [M⁻¹ s⁻¹] | koff [2] [s⁻¹] | kon [2] [M⁻¹ s⁻¹] | Kd [6] [nM] | koff [6] [s⁻¹] | kon [6] [M⁻¹ s⁻¹] | Kd [7] [nM] | Kd (CD16b NA1 [8]) [nM] | Kd (CD16b NA2 [9]) [nM] | Binder
30 | 30 | 31 | 9 | 59 |  |  |  |  |  |  |  |  |  |  | H_aBCMA-1-E6_15 aa_aCD16-A10(2a-C09)_His6c_OH (designed binder) VDNKFNKENQFADEEIAALPNLNFYQKWAFIRKLMDDPSQSANLLAEAKKLNDAQAPKGGGSGGGGSGGGGSGVDNKFNKEVQIAQREIRSLPNLNHHQVFAFIKKLLDDPSQSANLLAEAKKLNDAQAPK
95 | 95 | 98 | 26 | 175 | 0.0057 | 60000 | 0.0057 | 60000 |  |  |  |  |  |  | H_aBCMA-1-E6_15 aa_aCD16-A10(2a-G03)_His6c_OH (designed binder) VDNKFNKENQFADEEIAALPNLNFYQKWAFIRKLMDDPSQSANLLAEAKKLNDAQAPKGGGSGGGGSGGGGSGVDNKFNKETQVAQKEIRTLPNLNHHQIFAFLNKLIDDPSQSANLLAEAKKLNDAQAPK
72 | 72 | 73 | 24 | 145 | 0.0078 | 110000 | 0.0078 | 110000 |  |  |  |  |  |  | H_aBCMA-1-E6_15 aa_aCD16-A10(2a-H10)_His6c_OH (designed binder) VDNKFNKENQFADEEIAALPNLNFYQKWAFIRKLMDDPSQSANLLAEAKKLNDAQAPKGGGSGGGGSGGGGSGVDNKFNKELQSAQKEIRALPNLNHHQRFAFINSLLDDPSQSANLLAEAKKLNDAQAPKYYHHHHHH
 | 283 | 127 | 107 | 163 |  |  | 2.7 | 9.4e+06 |  |  |  |  |  |  | 1-E6-(GGGSG)3-A10*-YY-His6 with A10* = SEQ ID 26 (designed binder) VDNKFNKENQFADEEIAALPNLNFYQKWAFIRKLMDDPSQSANLLAEAKKLNDAQAPKGGGSGGGGSGGGGSGVDNKFNKEVQIAQKEIRELPNLNHHQKFAFIKSLLDDPSQSANLLAEAKKLNDAQAPKYYHHHHHH
 |  |  |  |  |  |  |  |  | 153 | 0.03 | 200000 | 136 | 87 | 230 | 1-E6-(GGGSG)3-A10*-YY-His6 with A10* = SEQ ID 39 (designed binder) VDNKFNKENQFADEEIAALPNLNFYQKWAFIRKLMDDPSQSANLLAEAKKLNDAQAPKGGGSGGGGSGGGGSGVDNKFNKEIQNAQWEIRHLPNLNHHQTFAFIQKLIDDPSQSANLLAEAKKLNDAQAPKYYHHHHHH
 |  |  |  |  |  |  |  |  | 171 | 0.098 | 580000 | 151 | 92 | 228 | 1-E6-(GGGSG)3-A10*-YY-His6 with A10* = SEQ ID 42 (designed binder) VDNKFNKENQFADEEIAALPNLNFYQKWAFIRKLMDDPSQSANLLAEAKKLNDAQAPKGGGSGGGGSGGGGSGVDNKFNKELQAAQVEIRKLPNLNHHQTFAFIKSLIDDPSQSANLLAEAKKLNDAQAPKYYHHHHHH
125 | 125 | 123 | 79 | 315 | 0.01 | 83000 | 0.01 | 83000 |  |  |  |  |  |  | H_aBCMA-1-E6_15 aa_aCD16-A10(2a-A06)_His6c_OH (designed binder) VDNKFNKENQFADEEIAALPNLNFYQKWAFIRKLMDDPSQSANLLAEAKKLNDAQAPKGGGSGGGGSGGGGSGVDNKFNKELQSAQWEIRALTNLNHHQKFAFIESLRDDPSQSANLLAEAKKLNDAQAPKYYHHHHHH
87 | 87 | 85 | 46 | 192 | 0.0062 | 71000 | 0.0062 | 71000 |  |  |  |  |  |  | H_aBCMA-1-E6_15 aa_aCD16-A10(34b-C3-2)_His6c_OH (designed binder) VDNKFNKENQFADEEIAALPNLNFYQKWAFIRKLMDDPSQSANLLAEAKKLNDAQAPKGGGSGGGGSGGGGSGVDNKFNKEIQHAQWEIRHLPNLNHHQQFAFIKSLIDDPSQSANLLAEAKKLNDAQAPKYYHHHHHH
 |  |  |  |  |  |  |  |  | 393 | 140 | 3.6e+08 | 312 | 135 | 455 | 1-E6-(GGGSG)3-A10*-YY-His6 with A10* = SEQ ID 41 (designed binder) VDNKFNKENQFADEEIAALPNLNFYQKWAFIRKLMDDPSQSANLLAEAKKLNDAQAPKGGGSGGGGSGGGGSGVDNKFNKEQQFAQQEIRKLPNLNHHQRFAFIRSLIDDPSQSANLLAEAKKLNDAQAPKYYHHHHHH
66 | 66 | 67 | 19 | 135 | 0.0057 | 86000 | 0.0057 | 86000 |  |  |  |  |  |  | 1-E6-(GGGSG)3-A10*-YY-His6 with A10* = SEQ ID 29 (designed binder) VDNKFNKENQFADEEIAALPNLNFYQKWAFIRKLMDDPSQSANLLAEAKKLNDAQAPKGGGSGGGGSGGGGSGVDNKFNKELQAAQKEIRTLPNLNHHQVFAFINKLIDDPSQSANLLAEAKKLNDAQAPKYYHHHHHH
 | 153 | 133 | 71 | 141 |  |  | 16 | 1.1e+08 |  |  |  |  |  |  | 1-E6-(GGGSG)3-A10*-YY-His6 with A10* = SEQ ID 35 (designed binder) VDNKFNKENQFADEEIAALPNLNFYQKWAFIRKLMDDPSQSANLLAEAKKLNDAQAPKGGGSGGGGSGGGGSGVDNKFNKELQNAQREIRALPNLNHHQQFAFIHKLIDDPSQSANLLAEAKKLNDAQAPKYYHHHHHH
 |  |  |  |  |  |  |  |  |  |  |  | 96 | 213 | 214 | 1-E6-(GGGSG)3-A10*-YY-His6 with A10* = SEQ ID 45 (designed binder) VDNKFNKENQFADEEIAALPNLNFYQKWAFIRKLMDDPSQSANLLAEAKKLNDAQAPKGGGSGGGGSGGGGSGVDNKFNKEKQQAQYEIRHLPNLNHHQAFAFIQKLIDDPSQSANLLAEAKKLNDAQAPKYYHHHHHH
149 | 149 | 155 | 65 | 334 | 0.015 | 99000 | 0.015 | 99000 |  |  |  |  |  |  | 1-E6-(GGGSG)3-A10*-YY-His6 with A10* = SEQ ID 18 (designed binder) VDNKFNKENQFADEEIAALPNLNFYQKWAFIRKLMDDPSQSANLLAEAKKLNDAQAPKGGGSGGGGSGGGGSGVDNKFNKEIQVAQSEIRALPNLNHHQIFAFIKKLLDDPSQSANLLAEAKKLNDAQAPKYYHHHHHH
 | 260 | 228 | 760 | 561 |  |  | 0.01 | 38000 |  |  |  |  |  |  | 1-E6-(GGGSG)3-A10*-YY-His6 with A10* = SEQ ID 34 (designed binder) VDNKFNKENQFADEEIAALPNLNFYQKWAFIRKLMDDPSQSANLLAEAKKLNDAQAPKGGGSGGGGSGGGGSGVDNKFNKEYQIAQWEIRRLPNLNHHQKFAFIASLLDDPSQSANLLAEAKKLNDAQAPKYYHHHHHH
 |  |  |  |  |  |  |  |  | 126 | 0.1 | 810000 | 111 | 82 | 267 | 1-E6-(GGGSG)3-A10*-YY-His6 with A10* = SEQ ID 40 (designed binder) VDNKFNKENQFADEEIAALPNLNFYQKWAFIRKLMDDPSQSANLLAEAKKLNDAQAPKGGGSGGGGSGGGGSGVDNKFNKEVQTAQWEIRHLPNLNHHQKFAFIRSLSDDPSQSANLLAEAKKLNDAQAPKYYHHHHHH
50 | 50 | 53 | 13 | 94 | 0.0048 | 94000 | 0.0048 | 94000 |  |  |  |  |  |  | H_aBCMA-1-E6_15 aa_aCD16-A10(2a-E06)_His6c_OH (designed binder) VDNKFNKENQFADEEIAALPNLNFYQKWAFIRKLMDDPSQSANLLAEAKKLNDAQAPKGGGSGGGGSGGGGSGVDNKFNKELQYAQKEIRRLPNLNHHQVFAFINKLIDDPSQSANLLAEAKKLNDAQAPKYYHHHHHH
 | 458 | 370 | 427 | 454 |  |  |  |  |  |  |  |  |  |  | 1-E6-(GGGSG)3-A10*-YY-His6 with A10* = SEQ ID 37 (designed binder) VDNKFNKENQFADEEIAALPNLNFYQKWAFIRKLMDDPSQSANLLAEAKKLNDAQAPKGGGSGGGGSGGGGSGVDNKFNKETQIAAQEIRHLPNLNHHQRFAFIKSLLDDPSQSANLLAEAKKLNDAQAPKYYHHHHHH
 | 179 | 163 | 37 | 253 |  |  | 0.11 | 620000 |  |  |  |  |  |  | 1-E6-(GGGSG)3-A10*-YY-His6 with A10* = SEQ ID 36 (designed binder) VDNKFNKENQFADEEIAALPNLNFYQKWAFIRKLMDDPSQSANLLAEAKKLNDAQAPKGGGSGGGGSGGGGSGVDNKFNKEDQRAQREIRALPNLNHHQKFAFINKLLDDPSQSANLLAEAKKLNDAQAPKYYHHHHHH

From US20250333445A1 (ONCOPEPTIDES INNOVATION 1, published 2025)
